From publication PMC5143173 (Structure (London, England : 1993), 2016)

B1: Apoptosis-inducing factor AIF78 ([…]), wild type (domain or fragment)
chain: not shown
B2: Apoptosis-inducing factor AIF121 ([…]), wild type (domain or fragment)
chain: not shown

Biological target: the molecule itself
Assay: SAXS

Protein | stoichiometry N
B1 | 2
B2 | 2
